These are yes or no findings as the source states them, for the method shown. Binding seen in cells or lysates may run through a third protein. Some binding calls cover weakened binding; strength is not graded here.
T1: KIF1Bα (human), overexpressed (human) (UniProt O60333)
T1 sequence: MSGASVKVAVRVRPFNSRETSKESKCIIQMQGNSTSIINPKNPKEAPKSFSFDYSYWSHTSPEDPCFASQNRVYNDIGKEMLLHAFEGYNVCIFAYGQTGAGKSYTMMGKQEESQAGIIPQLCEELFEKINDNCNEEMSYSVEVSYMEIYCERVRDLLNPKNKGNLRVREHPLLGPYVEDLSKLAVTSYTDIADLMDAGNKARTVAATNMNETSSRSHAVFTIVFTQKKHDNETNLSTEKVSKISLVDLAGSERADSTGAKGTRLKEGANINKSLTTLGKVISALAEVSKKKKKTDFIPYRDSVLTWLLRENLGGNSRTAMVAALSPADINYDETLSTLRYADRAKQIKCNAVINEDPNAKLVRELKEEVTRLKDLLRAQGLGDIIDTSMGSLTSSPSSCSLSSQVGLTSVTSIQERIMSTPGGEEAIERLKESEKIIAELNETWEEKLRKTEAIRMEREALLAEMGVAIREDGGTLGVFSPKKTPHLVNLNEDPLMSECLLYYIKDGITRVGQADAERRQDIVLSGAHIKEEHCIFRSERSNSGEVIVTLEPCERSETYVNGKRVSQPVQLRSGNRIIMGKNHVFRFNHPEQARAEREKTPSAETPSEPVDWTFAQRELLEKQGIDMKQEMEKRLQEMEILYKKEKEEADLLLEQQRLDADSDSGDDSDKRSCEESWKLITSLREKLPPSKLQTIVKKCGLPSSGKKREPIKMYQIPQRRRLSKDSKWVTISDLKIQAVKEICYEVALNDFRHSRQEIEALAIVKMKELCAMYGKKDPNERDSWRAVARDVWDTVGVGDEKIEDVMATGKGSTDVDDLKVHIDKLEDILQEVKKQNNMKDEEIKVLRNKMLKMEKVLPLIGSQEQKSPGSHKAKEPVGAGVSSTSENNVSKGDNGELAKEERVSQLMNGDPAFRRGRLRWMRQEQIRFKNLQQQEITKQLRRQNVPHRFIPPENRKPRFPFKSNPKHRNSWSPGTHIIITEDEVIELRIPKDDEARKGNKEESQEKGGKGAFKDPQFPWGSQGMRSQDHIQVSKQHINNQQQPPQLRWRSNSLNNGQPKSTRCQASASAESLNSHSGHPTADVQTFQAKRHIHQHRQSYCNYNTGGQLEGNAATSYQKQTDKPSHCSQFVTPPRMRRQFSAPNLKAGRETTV

T2: KIF1Bα350-1135-VSV (human) (UniProt O60333)
T2 sequence: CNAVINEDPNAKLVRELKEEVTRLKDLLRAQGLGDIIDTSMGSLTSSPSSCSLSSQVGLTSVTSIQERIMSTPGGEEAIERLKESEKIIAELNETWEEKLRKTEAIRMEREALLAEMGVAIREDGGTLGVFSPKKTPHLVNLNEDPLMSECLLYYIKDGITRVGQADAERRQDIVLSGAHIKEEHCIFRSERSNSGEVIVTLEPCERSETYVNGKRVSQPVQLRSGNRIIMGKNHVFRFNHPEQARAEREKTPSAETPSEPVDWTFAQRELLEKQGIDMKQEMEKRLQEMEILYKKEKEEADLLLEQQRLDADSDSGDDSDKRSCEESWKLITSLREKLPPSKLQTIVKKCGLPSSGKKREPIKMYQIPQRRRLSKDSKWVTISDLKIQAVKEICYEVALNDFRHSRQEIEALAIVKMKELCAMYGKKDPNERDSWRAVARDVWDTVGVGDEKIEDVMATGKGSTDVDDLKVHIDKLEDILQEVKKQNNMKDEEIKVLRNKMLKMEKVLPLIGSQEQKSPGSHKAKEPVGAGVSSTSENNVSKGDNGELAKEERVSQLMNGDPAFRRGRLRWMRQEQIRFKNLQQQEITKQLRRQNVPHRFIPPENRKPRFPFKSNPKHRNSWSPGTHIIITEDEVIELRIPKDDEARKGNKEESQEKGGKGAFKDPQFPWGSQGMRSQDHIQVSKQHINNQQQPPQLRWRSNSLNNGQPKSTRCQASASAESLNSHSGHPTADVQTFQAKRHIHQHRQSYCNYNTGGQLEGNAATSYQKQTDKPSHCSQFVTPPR

B1: KBP-VSV (protein, UniProt Q96EK5 1-621)
chain: MANVPWAEVCEKFQAALALSRVELHKNPEKEPYKSKYSARALLEEVKALLGPAPEDEDERPEAEDGPGAGDHALGLPAEVVEPEGPVAQRAVRLAVIEFHLGVNHIDTEELSAGEEHLVKCLRLLRRYRLSHDCISLCIQAQNNLGILWSEREEIETAQAYLESSEALYNQYMKEVGSPPLDPTERFLPEEEKLTEQERSKRFEKVYTHNLYYLAQVYQHLEMFEKAAHYCHSTLKRQLEHNAYHPIEWAINAATLSQFYINKLCFMEARHCLSAANVIFGQTGKISATEDTPEAEGEVPELYHQRKGEIARCWIKYCLTLMQNAQLSMQDNIGELDLDKQSELRALRKKELDEEESIRKKAVQFGTGELCDAISAVEEKVSYLRPLDFEEARELFLLGQHYVFEAKEFFQIDGYVTDHIEVVQDHSALFKVLAFFETDMERRCKMHKRRIAMLEPLTVDLNPQYYLLVNRQIQFEIAHAYYDMMDLKVAIADRLRDPDSHIVKKINNLNKSALKYYQLFLDSLRDPNKVFPEHIGEDVLRPAMLAKFRVARLYGKIITADPKKELENLATSLEHYKFIVDYCEKHPEAAQEIEVELELSKEMVSLLPTKMERFRTKMALT
B2: KBP, overexpressed in 293 cells (protein, UniProt Q96EK5 1-621)
chain: B1 chain

Tests used:
[1] = biological target: T1, KIF1Bα (human), overexpressed (human); experiment: co-IP; 293 cells transiently overexpressing KBP-VSV alone or with KIF1Bα; Triton X-100 lysate; precipitated with anti-KIF1B serum, blotted with VSV antibody; 4°C
[2] = biological target: T2, KIF1Bα350-1135-VSV (human); experiment: co-IP; 293 cells transiently overexpressing KBP alone or with KIF1Bα-MYC or KIF1Bα350-1135-VSV; precipitated with VSV or MYC antibody; KBP detected with the specific antibody

Binder | binding [1] | binding [2]
B1 | binds | 
B2 |  | no binding

From publication PMC1266353
